# Measured values as given in patent US20090143279A1 (priority 2007, published 2009).
# Read-outs that look alike come from different tables or passages of the source.
# System: cellular ATP levels
# Details: for ATP (composite Z-score): normalized score vs mock-treated (DMSO) wells
# [1] = normalized composite Z-score vs mock-treated (DMSO) wells, Conc 20 μM
# [2] = composite Z-score vs DMSO, Conc 20 μM
# [3] = 20 μM, composite Z-score vs DMSO
# [4] = composite Z-score vs mock-treated (DMSO) wells, Conc 20 μM
# [5] = composite Z-score vs DMSO wells, Conc 20 μM
# [6] = Table 4, C2C12 myotubes, 48 h, composite Z-score
molecule,measurement,setting,value
C=CC1=C(C)/C(=C/c2[nH]c(Cc3[nH]c(/C=C4\NC(=O)C(C)=C4C=C)c(C)c3CCC(=O)O)c(CCC(=O)O)c2C)NC1=O [bilirubin],ATP (composite Z-score),Conc 20 μM,0.936
"3,7-epoxycaryophyllan-6-one",ATP,[1],−0.022
O=C(O)/C=C/C=C/c1ccccc1 [juarezic acid],ATP,[2],0.624
COc1ccc([C@H]2COc3cc(O)ccc3C2)c(OC)c1O [mucronulatol],ATP (composite Z-score),Conc 20 μM,−0.648
C[C@@H]1CC[C@@]2(OC1)O[C@H]1C[C@H]3[C@@H]4CC[C@H]5C[C@@H](O)CC[C@]5(C)C4=CC[C@]3(C)[C@H]1[C@@H]2C [hydroxy (3beta)isoallospirost-9 (11)-ene],ATP,[1],−0.703
COc1ccc2cc([C@H](C)CO)ccc2c1 [naproxol],ATP,[2],0.350
"COc1ccc(C[C@H]2NC[C@H](O)[C@H]2OC(C)=O)cc1 [Anisomycin, reference compound]",ATP,"composite Z-score vs DMSO, Conc 15.08 μM",−1.426
Cc1cc(N)c2ccccc2[n+]1CCCCCCCCCC[n+]1c(C)cc(N)c2ccccc21 [dequalinium],ATP,"8.76 μM, composite Z-score vs DMSO",−5.078
same,ATP,[3],−5.120
totarol acetate,ATP,[2],0.031
"CCOC(=O)c1c(C)cc(O)c(C=O)c1O [haematommic acid, ethyl ester]",ATP,[4],−0.324
Clc1ccc(C(c2ccccc2Cl)C(Cl)Cl)cc1 (centres unmarked) [mitotane],ATP,[3],0.341
CC1=C2C(O)C(=O)OC3CC4C(C)(C)C(=O)C=C[C@]4(C)C(CC1)[C@]23C (some centres unmarked) [merogedunin],ATP,[1],2.064
Cc1cc(O)c(C=O)c(O)c1C(=O)O [haematommic acid],ATP,[2],2.409
3alpha-hydroxy-3-deoxyangolensic acid methyl ester,ATP,[4],0.398
"CC(=O)O[C@@H]1C[C@H]2C(C)(C)CCC(=O)[C@]2(C)[C@H]2CC[C@@]3(C)[C@H](c4ccoc4)OC(=O)[C@H]4O[C@]43[C@@]21C [2,3-dihydroisogedunin]",ATP (composite Z-score),Conc 20 μM,0.069
CC(C)=CCC1=C(O)C(=O)c2ccccc2C1=O [lapachol],ATP,[5],−0.409
COc1cc2c(cc1OC)[C@@]13CCN4CC5=CCO[C@H]6CC(=O)N2[C@H]1[C@H]6[C@H]5C[C@H]43 [brucine],ATP (composite Z-score),Conc 20 μM,0.579
CCC[C@H]1CC2=C(C[C@@H](CC)CC3=C1C(=O)OC3=O)C(=O)OC2=O [byssochlamic acid],ATP (composite Z-score),Conc 20 μM,−1.035
beta-escin,ATP (composite Z-score),Conc 20 μM,−5.858
"Oc1ccc2c(c1)O[C@H](c1ccc(O)c(O)c1)[C@@H](O)C2 [fisetinidol, reference compound]",ATP (composite Z-score),Conc 20 μM,0.542
CO/N=C(\C(=O)N[C@@H]1C(=O)N2C(C(=O)OCOC(=O)C(C)(C)C)=C(/C=C\c3scnc3C)CS[C@H]12)c1csc(N)n1 [cefditorin pivoxil],ATP,[2],1.534
COC(=O)C[C@H]1C(C)(C)[C@@H](OC(C)=O)[C@@H]2CC3=C4CC(=O)O[C@@H](c5ccoc5)[C@]4(C)CC[C@@H]3[C@@]1(C)C2=O [fissinolide],ATP,[4],0.175
COc1ccc2c(c1)C1(C)CCC(=O)CC1CC2 (centres unmarked),ATP,[1],0.458
CC(=O)N(CC(O)CO)c1c(I)c(C(=O)NCC(O)CO)c(I)c(C(=O)NCC(O)CO)c1I (centres unmarked) [iohexol],ATP,,0.395
C=C1C2CC[C@@]3(C)[C@H](c4ccoc4)OC(=O)C[C@]13O[C@H]1CC(=O)C(C)(C)[C@H](C(O)C(=O)OC)[C@@]21C (some centres unmarked) [6-hydroxyangolensic acid methyl ester],ATP,[4],−0.193
C[C@@H]1O[C@@H](O[C@H]2[C@H](Oc3cc(O)c4c(=O)cc(-c5ccc(O)cc5)oc4c3)O[C@H](CO)[C@@H](O)[C@@H]2O)[C@H](O)[C@H](O)[C@H]1O [rhoifolin],ATP,[1],0.053
COc1cc2occc2c2oc(=O)ccc12 [isobergaptene],ATP,[4],−0.303
"CC(=O)O[C@@H]1C[C@H]2C(C)(C)[C@H](O)C[C@H](O)[C@]2(C)[C@H]2CC[C@@]3(C)[C@H](c4ccoc4)OC(=O)[C@H]4O[C@]43[C@@]21C [1,3-dideacetylkhivorin]",ATP,[2],0.959
O=C1C(O)=C(O)C(=O)C(O)=C1O [tetroquinone],ATP,[5],0.130
C#CC1(O)CC[C@H]2[C@@H]3CCC4=CC(=O)CC[C@@H]4[C@H]3CC[C@@]21CC (mixture of isomers) [norgestrel],ATP,[5],0.593
CC(C)[N+](C)(CCOC(=O)C1c2ccccc2Oc2ccccc21)C(C)C [propantheline],ATP,"10.86 μM, composite Z-score vs DMSO",0.808
same,ATP,[3],0.070
CC(=O)O[C@H]1C[C@@H](OC(C)=O)C(C)(C)[C@@H]2C[C@@H](OC(C)=O)[C@@]3(C)C4=CC(=O)O[C@@H](c5ccoc5)[C@]4(C)CC[C@@H]3[C@@]12C [deoxykhivorin],ATP (composite Z-score),Conc 20 μM,−0.330
"COC(=O)Nc1nc2ccc(SC(C)C)cc2[nH]1 [methiazole, reference compound]",ATP,[6],−0.555
COc1ccc(-c2cc(=O)c3c(O)cc(O)c(-c4cc(-c5cc(=O)c6c(O)cc(O)cc6o5)ccc4OC)c3o2)cc1 [isoginkgetin],ATP,[1],−0.550
CC1=C(O)C(=O)C=C2C1=CC=C1[C@@]2(C)CC[C@@]2(C)[C@@H]3C[C@](C)(C(=O)O)CC[C@]3(C)CC[C@]12C [celastrol],ATP,[2],−8.640
COC1=C(O)C(=O)c2c(cc3oc(C(C)=O)c(O)c3c2O)C1=O [rhodocladonic acid],ATP,[2],1.670
CC1=C(/C=C/C(C)=C/C=C/C(C)=C/C=C/C=C(C)/C=C/C=C(C)/C=C/[C@@]23O[C@]2(C)C[C@@H](O)CC3(C)C)C(C)(C)C[C@H](O)C1 [antheraxanthin],ATP,[1],0.403
C[C@]12CC[C@H]3[C@@H](CC[C@]4(O)C[C@@H](O)CC[C@]34C(=O)O)[C@@]1(O)CC[C@@H]2C1=CC(=O)OC1 [strophanthidinic acid],ATP,[1],0.463
isoduartin methyl ether [reference compound],ATP (composite Z-score),Conc 20 μM,0.032
same,ATP,[6],0.032
C[C@@H]1O[C@@H](O[C@H]2[C@H](O[C@H]3CC[C@@]4(C)[C@@H](CC[C@]5(C)[C@@H]4CC=C4[C@@H]6CC(C)(C)CC[C@]6(C(=O)O)CC[C@]45C)[C@]3(C)CO)OC[C@H](O)[C@@H]2O)[C@H](O)[C@H](O)[C@H]1O [sapindoside A],ATP,[2],−4.232
CC=Cc1ccc2c(c1)OCO2 [isosafrole],ATP,[4],0.369
C[C@@H]1CC[C@@]2(OC1)O[C@H]1C[C@H]3[C@@H]4CC=C5C[C@@H](O)CC[C@]5(C)[C@H]4CC[C@]3(C)[C@H]1[C@@H]2C [diosgenin],ATP,[2],−0.057
"Oc1nc2cc(Cl)c(Cl)cc2nc1O [2,3-dihydroxy-6,7-dichloroquinoxaline]",ATP (composite Z-score),Conc 20 μM,0.984
CC(=O)Oc1cccc(C(=O)O)c1OC(C)=O [dipyrocetyl],ATP (composite Z-score),Conc 20 μM,1.278
"COc1ccc2c(c1OC)C(=O)O[C@@H]2[C@H]1c2cc3c(cc2CCN1C)OCO3 [1s,9r-hydrastine]",ATP,[2],0.403
C=C1CCC2C(CC2(C)C)C(=O)CCC1O (centres unmarked) [isokobusone],ATP,[2],−0.166
CC(=O)Oc1cc2c(c(C)c1OC(C)=O)CC=C1[C@@]2(C)CC[C@@]2(C)C3C[C@](C)(C(=O)O)CC[C@]3(C)CC[C@]12C (some centres unmarked) [dihydrocelastryl diacetate],ATP (composite Z-score),Conc 20 μM,−4.966
COC(=O)C[C@H]1C2(C)CC34OC5(C)O[C@@]6([C@H](OC(C)=O)C(OC(C)=O)[C@]7(C)C(/C(=C(/O)C(C)C)C(=O)O[C@H]7c7ccoc7)[C@@]6(O5)[C@H](OC(C)=O)[C@@]3(O)C2OC(=O)C(C)C)[C@]14C (some centres unmarked) [bussein],ATP,[2],0.214
same,ATP,[4],−0.071
COc1cc(O)ccc1C(C)=O [isopeonol],ATP,[2],2.649
CC(=O)O[C@H]1C[C@@H](OC(C)=O)C(C)(C)C2CC(=O)[C@]3(C)C(CC[C@@]4(C)[C@H](C(=O)O)OC(=O)C5OC543)[C@]21C (some centres unmarked) [deacetoxy(7)-7-oxokhivorinic acid],ATP,[1],0.363
CC(=O)O[C@@H]1C[C@H]2C(C)(C)C(=O)CC[C@]2(C)[C@H]2CC[C@@]3(C)[C@H](c4ccoc4)OC(=O)[C@H]4O[C@]43[C@@]21C [dihydrogedunin],ATP,[4],0.315
[H]/N=C(\N/C(=N/[H])NCCCCCCNC(=N)NC(=N)Nc1ccc(Cl)cc1)Nc1ccc(Cl)cc1 [chlorhexidine],ATP,"7.92 μM, composite Z-score vs DMSO",−2.238
same,ATP,[3],−1.078
"COc1cc2c(cc1OC)[C@@H]1C(=O)c3ccc(O)c(CC=C(C)C)c3O[C@@H]1CO2 [rotenonic acid, reference compound]",ATP,[4],0.763
CCC(=O)OC1[C@@H]2CC3=C4CC(=O)O[C@@H](c5ccoc5)[C@]4(C)CCC3[C@@](C)(C2=O)[C@@H](CC(=O)OC)C1(C)C (some centres unmarked) [khayasin C],ATP,[4],−0.324
COc1ccc([C@H]2Oc3cc(OC)cc(OC)c3C[C@H]2O)cc1 [epiafzelechin trimethyl ether],ATP,[1],0.312
"C[C@]12CC[C@H](O)C[C@@H]1CC[C@@H]1[C@@H]2CC[C@]2(C)[C@@H](O)CC[C@@H]12 [5alpha-androstan-3beta,17beta-diol]",ATP,[2],0.359
"Oc1ccc([C@H]2Oc3cc(O)cc(O)c3C[C@H]2O)cc1 [epiafzelechin(2r,3r)(−), reference compound]",ATP,[6],0.986
O=C(O)CN(CC(=O)O)Cc1cc2c(cc1O)Oc1cc(O)c(CN(CC(=O)O)CC(=O)O)cc1C21OC(=O)c2ccccc21 [calcein],ATP,[5],2.057
CCOc1ccc(NC(C)=O)cc1 [phenacetin],ATP,[5],1.310
C[N+](C)(C)CC(=O)O [betaine],ATP,,−0.215
3-deoxo-3beta-acetoxydeoxydihydrogedunin,ATP,[4],−0.605
Oc1ccc2c(c1)OC[C@H]1c3cc4c(cc3O[C@@H]21)OCO4 [maackiain],ATP (composite Z-score),Conc 20 μM,1.146
c1ccc2c3c([nH]c2c1)[C@H]1[C@H]2CC[C@H]([C@@H]4CCCN[C@@H]42)N1CC3 [nitrarine],ATP,"composite Z-score vs mock-treated (DMSO) wells, concentration of each compound in μM",−0.894
"O=C1c2ccc(O)cc2OC(c2cc(O)c(O)c(O)c2)C1O (stereo in doubt) [dihydrorobinetin, reference compound]",ATP (composite Z-score),Conc 20 μM,0.456
same,ATP,[6],0.456
COc1cc(C)c(C(=O)O)c(O)c1 [everninic acid],ATP,[1],0.947
